Assay results: publication PMC13288828
Results are given in words; binding and its absence hold for the method and conditions named. Binding seen in cells or lysates may run through a third protein. Some binding calls cover weakened binding; strength is not graded here. For some assays here: Where a sequence is shown, tags or fusion partners need not be part of it.

Sequences of proteins named here, by UniProt entry; tags and fusion partners are left off. A change or cut given only in a name is not applied to a line headed by its entry. A line that says so, or that is headed by a name, gives the form on record, which may keep a tag or linker. Residues count along the entry.
UniProt Q86WV6: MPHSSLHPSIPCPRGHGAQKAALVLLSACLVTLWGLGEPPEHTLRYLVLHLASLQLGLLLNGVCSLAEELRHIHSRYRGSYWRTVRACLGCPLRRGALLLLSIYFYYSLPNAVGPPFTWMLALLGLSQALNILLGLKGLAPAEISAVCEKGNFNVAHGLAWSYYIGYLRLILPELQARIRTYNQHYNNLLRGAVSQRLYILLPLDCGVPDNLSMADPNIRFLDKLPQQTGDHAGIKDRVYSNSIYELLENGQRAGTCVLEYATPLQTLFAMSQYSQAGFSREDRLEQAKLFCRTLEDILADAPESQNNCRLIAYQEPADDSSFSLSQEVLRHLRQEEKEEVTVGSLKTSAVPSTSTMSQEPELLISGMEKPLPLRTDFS
Flag-tagged STING-ΔC: residues 1-339 of Q86WV6
Flag-tagged STING-TM: residues 1-153 of Q86WV6
Flag-tagged STING-ΔTM: residues 153-379 of Q86WV6
Flag-tagged STING-CDN: residues 153-339 of Q86WV6
UniProt P07355: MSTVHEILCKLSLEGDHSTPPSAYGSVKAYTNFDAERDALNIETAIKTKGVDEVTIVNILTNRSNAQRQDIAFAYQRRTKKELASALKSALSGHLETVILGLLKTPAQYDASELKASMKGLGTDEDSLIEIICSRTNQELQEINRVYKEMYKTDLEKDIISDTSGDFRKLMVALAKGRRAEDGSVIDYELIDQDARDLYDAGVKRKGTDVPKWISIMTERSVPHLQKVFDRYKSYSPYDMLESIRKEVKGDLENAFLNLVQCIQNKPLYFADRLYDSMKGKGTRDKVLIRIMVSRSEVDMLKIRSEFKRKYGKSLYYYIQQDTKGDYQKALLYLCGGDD
UniProt P07356: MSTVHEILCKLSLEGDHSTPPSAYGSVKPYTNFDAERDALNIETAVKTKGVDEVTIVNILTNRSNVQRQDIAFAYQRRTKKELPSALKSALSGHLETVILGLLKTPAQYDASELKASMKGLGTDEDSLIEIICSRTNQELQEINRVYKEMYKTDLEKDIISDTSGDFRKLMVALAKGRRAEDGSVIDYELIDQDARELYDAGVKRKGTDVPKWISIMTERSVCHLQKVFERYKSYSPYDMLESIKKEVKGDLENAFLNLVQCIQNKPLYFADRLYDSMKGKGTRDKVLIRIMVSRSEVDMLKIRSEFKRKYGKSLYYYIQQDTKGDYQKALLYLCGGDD

Assays:
Test in all cases: co-IP
[1] = target: T1, Flag-tagged IRF3 (Flag-IRF3) (UniProt Q14653)
T1 sequence: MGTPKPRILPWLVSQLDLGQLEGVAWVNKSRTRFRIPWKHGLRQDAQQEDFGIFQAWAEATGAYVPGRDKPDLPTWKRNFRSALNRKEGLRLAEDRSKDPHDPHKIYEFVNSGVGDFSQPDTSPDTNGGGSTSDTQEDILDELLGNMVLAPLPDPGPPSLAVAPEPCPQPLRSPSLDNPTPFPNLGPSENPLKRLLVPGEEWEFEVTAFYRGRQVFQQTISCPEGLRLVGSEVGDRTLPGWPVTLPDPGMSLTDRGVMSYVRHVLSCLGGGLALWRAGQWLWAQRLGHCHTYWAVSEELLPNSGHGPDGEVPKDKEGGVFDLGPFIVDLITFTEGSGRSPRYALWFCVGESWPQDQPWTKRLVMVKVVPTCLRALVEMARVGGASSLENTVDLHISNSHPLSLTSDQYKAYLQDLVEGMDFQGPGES

[2] = target: Flag-tagged STING (Flag-STING) (UniProt Q86WV6)
Flag-tagged STING-CDN = Flag-tagged STING-CDN (UniProt Q86WV6)
Flag-tagged STING-TM = Flag-tagged STING-TM (UniProt Q86WV6)
Flag-tagged STING-ΔC = Flag-tagged STING-ΔC (UniProt Q86WV6)
Flag-tagged STING-ΔTM = Flag-tagged STING-ΔTM (UniProt Q86WV6)
[3] = target: T2, endogenous IRF3 of mouse peritoneal macrophages (mouse (endogenous in peritoneal macrophages)) (UniProt P70671)
T2 sequence: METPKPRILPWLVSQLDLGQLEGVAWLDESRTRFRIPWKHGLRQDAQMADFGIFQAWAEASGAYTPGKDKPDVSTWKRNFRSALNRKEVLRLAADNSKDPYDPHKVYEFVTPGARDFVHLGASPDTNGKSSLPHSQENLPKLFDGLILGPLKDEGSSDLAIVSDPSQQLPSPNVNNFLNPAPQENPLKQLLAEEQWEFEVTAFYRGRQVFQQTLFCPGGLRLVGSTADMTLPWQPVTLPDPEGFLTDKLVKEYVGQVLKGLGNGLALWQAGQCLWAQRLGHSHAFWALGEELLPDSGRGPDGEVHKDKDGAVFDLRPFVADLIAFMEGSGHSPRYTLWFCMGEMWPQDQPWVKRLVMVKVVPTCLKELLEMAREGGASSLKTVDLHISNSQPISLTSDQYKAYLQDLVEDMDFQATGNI

[4] = target: T3, endogenous STING of mouse peritoneal macrophages (mouse (endogenous in peritoneal macrophages)) (UniProt Q3TBT3)
T3 sequence: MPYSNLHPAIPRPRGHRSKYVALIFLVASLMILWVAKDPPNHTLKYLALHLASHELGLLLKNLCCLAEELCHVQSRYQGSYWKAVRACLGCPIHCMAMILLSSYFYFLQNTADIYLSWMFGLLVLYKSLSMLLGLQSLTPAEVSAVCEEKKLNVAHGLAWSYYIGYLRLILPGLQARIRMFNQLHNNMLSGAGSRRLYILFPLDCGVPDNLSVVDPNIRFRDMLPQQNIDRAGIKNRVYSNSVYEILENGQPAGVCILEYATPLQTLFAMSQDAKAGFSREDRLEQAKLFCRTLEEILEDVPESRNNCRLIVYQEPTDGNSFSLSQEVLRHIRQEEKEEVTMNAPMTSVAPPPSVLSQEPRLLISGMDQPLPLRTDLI

Row | Substance | binding [1] | other results
1 | HA-tagged ANXA2-D1 (from UniProt P07355 1-102) (domain or fragment) | no binding | 
2 | HA-tagged ANXA2-D2 (from UniProt P07355 1-174) (domain or fragment) | binds | 
3 | HA-tagged ANXA2-D3 (from UniProt P07355 1-259) (domain or fragment) | binds | 
4 | HA-tagged ANXA2-D4 (from UniProt P07355 50-339) (domain or fragment) | binds | 
5 | HA-tagged ANXA2-D5 (from UniProt P07355 122-339) (domain or fragment) | binds | 
6 | HA-tagged ANXA2-D6 (from UniProt P07355 207-339) (domain or fragment) | binds | 
7 | HA-tagged Annexin A2 (HA-ANXA2) (from UniProt P07355 1-339) | binds | binding [2]: binds; binding (Flag-tagged STING-CDN): no binding; binding (Flag-tagged STING-TM): binds; binding (Flag-tagged STING-ΔC): binds; binding (Flag-tagged STING-ΔTM): no binding
8 | endogenous ANXA2 of mouse peritoneal macrophages (from UniProt P07356 1-339) |  | binding [3]: binds; binding [4]: binds
